The supplement of paper PMC11417369
Some of the results follow.

System: PF3D7_0420300 AP2 domain 1 (GST-tagged)
Assay: gcPBM binding intensity (ln(normalized median fluorescence intensity)); higher = stronger DNA binding
In short: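 An Agilent 4 × 180k array of primer-extended double-stranded 36-bp intergenic genomic probes, with negative controls, was incubated for 1 h with GST-tagged P. falciparum DNA-binding domains expressed in E. coli. Alexa488 anti-GST antibody detected bound protein, scanned at 488 nm. Binding intensity is the highest Masliner-normalised natural-log median intensity across replicate spots of either probe orientation.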

Sequence	gcPBM binding intensity (ln)
GAAAAAAAAAAAAAAAGTACATTCTCTATTTCATGT [XGTACX_site3209]	8.93
ATAAATTTAAATAGGAGTACACAGCTTTATATTTTG [XGTACX_site4176]	9.31
TAATTACCATATGGTACACACATATTTATAGGTATA [CACACA_site7603]	9.52
ACGTATAATATGTACACACACATATATACCAAAAAA [CACACA_site4661]	9.79
GATAAAATAATATATAGTACTTTTTTAAAATAAATA [XGTACX_site522]	8.94
CGCGCACCCAGACACACACACACACCCATATATATA [CACACA_site2203]	10.2
TGAACATCATTTTTATGTACACACACATATACGTTG [XGTACX_site3864]	9.95
GACGTGGAAAAAAAAACACACACAAAAAAAAAAAAA [CACACA_site9324]	9.51
AAAACAAACAAAAAAAAAAAAAAAAATATCAATCTA [TGCATGCA_negctrl_site203]	9.13
ATATATCATGCCAAGGGTACAAATGTGTAGTTGAAA [XGTACX_site2820]	9.38
TTTTTTAAATATTATTTTTATGAGTAAATATATTAT [GTGCAC_negctrl_site277]	8.92
GACAACGTTTCAATGTGTACATATTTATAATATATA [XGTACX_site2427]	9.14
TATATATATATATATACATGCATTTTTGTTTGCTTA [TGCATGCA_site256]	9.15
TTTTTTTTTTCTCCTGCATGCAGCATTTATATATTA [TGCATGCA_site390]	9.59
ATTGAAAAACCGTTTAGTACATATCATCACGTTTGT [XGTACX_site1295]	9.19
TATATATATATATGTACACACATCAATCATATTAAC [CACACA_site1946]	9.64
AAAATACGAATATAAACATGCACCATATAGAACAAA [TGCATGCA_site925]	9.71
TTTTTTTTTTTTTTTACACACTGCATACAAGAAAAA [CACACA_site5642]	9
TAAAATAAAATAAGTAGTACATATATAATTATATAT [XGTACX_site6733]	9.33

Sequence	gcPBM binding intensity (ln)
TACAAATATAGATGCACACACATATACATACCTATA [CACACA_site7094]	9.81
TTTTTACAAAAAAAAAAAAAAAAAATAAAAATAAAT [CACACA_negctrl_site1738]	8.9
TAAATCACAAAATTATGTACTAAGAAGGAGCAACAT [XGTACX_site6742]	9.39
TATACCTTAATATACACACATACATATATATATATA [CACACA_site1339]	9.57
TATATACATTTTTATGTGCACATTTTATTTTTAAAT	9.33
TAACAAAGTAAAAGAACATGCAAACACGCACACAGA [TGCATGCA_site374]	9.73
GGGGAAAAAGCAGGTTGTACAGTGATGTCCATATAA [XGTACX_site7606]	9.39
AGTGTATTAAATTTTGAACACACAAAATAAAACATA [CACACA_site8483]	9.43
TTTTAATTTAAAAATTAATTTATATATATATATATA [TGCATGCA_negctrl_site447]	8.89
TTTAGACTTTTCTATAGTACATATTATATATATATA [XGTACX_site6532]	9.08
AATTTATTAATACAAAGTACTTTCTAATATGAATTT [XGTACX_site8013]	8.92
GAAAAATTAAAATGTGGTACAATAAAATTTTATTCA [XGTACX_site5030]	9.22
ATATTTATACTATACACACCCAATTTAAAAAAAAAT [CACACA_site1163]	9.62
TTATTGCGCACAATTTGTACATATATATATATAGAA [XGTACX_site7573]	9.09
GTAAGAAACAGACACACACACATATAAATATAAATA [CACACA_site6515]	10.1
TATTGAAAAAGTGGAAAAAAGTACATCATACGGGAA [CACACA_negctrl_site1091]	9.66
CGTAATAATTAATGTTGTACCCACCAAAAAAATTAA [XGTACX_site8592]	9.08
ATTACATTTTTGTTTTGTACATATATTTTATAAACA [XGTACX_site494]	9.34
TATATTTATATATATACACACATAATAAAAAATATA [CACACA_site844]	9.45

Sequence	gcPBM binding intensity (ln)
TTGTTTTGTAATAAAAAAAAAATAATATAATATAAT [XGTACX_negctrl_site300]	9.11
GAAATATTGAAACACACACACAAACATATATATATA [CACACA_site1911]	9.96
TTTATAGTTTTAAACAAAGTAATACAAATGTATATA [CACACA_negctrl_site1716]	8.87
TATAAAAAAAATAAAATAAAATAAAATAGAAAAATA [TGCATGCA_negctrl_site109]	9.37
AACATTATCAAATAAACCATAAATCAATTCAATATG [CACACA_negctrl_site696]	9.39
AAACGTTTATTTTATTGTACATATGAAAAATGCTTC [XGTACX_site6896]	9.19
ATATTTTTTTTTTTCACACACATTTAGATTGTATTA [CACACA_site3137]	9.86
AAAAAAAAAAAAAATTGTACGGATTCTTTTTTTTTT [XGTACX_site2898]	9.1
TTGTATAAAAAACTAAAAAATATAAAATAATAAGTG [CACACA_negctrl_site1704]	9.32
AAAAAAATATATTCCTAATTTATGATTAAAAGGAAT [CACACA_negctrl_site751]	8.98
ATAAATTAAACAAACACACACGTTCTTTTATTTACT [CACACA_site4556]	9.66
TTTTTTTTTGGGTGTACACATGAATATATATTTTTT [CACACA_site5254]	9.28
AGAATTATATCATGGTGTACTTATTTGTTTATTTCT [XGTACX_site5795]	9.57
AAATTTGGTGAAGGATGTACTTTACCTAATACTTGT [XGTACX_site4825]	9.21
AAAACAAAAAAATTTTGTACGAAACAATACTGTAAG [XGTACX_site7992]	9.11
TATATATATTGTTATTGTACACAAATATAGGAAATA [XGTACX_site7110]	9.23
ATAAATAGAATAAAATGTACATGTAATACATATATA [XGTACX_site5475]	9.39
TTCTTAAAAAATCAAACACACATATATATATACATA [CACACA_site2296]	9.44
